{"source": "paper PMC6919601", "about": "“Identification of Plasmodium dipeptidyl aminopeptidase allosteric inhibitors by high throughput screening” (PLoS ONE, 2019)", "note": "Among all 110,000 compounds or so, about 230 (0.21%) showed an effect of 50% or more. This is one part of the list.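 Note: 30 min substrate incubation versus DMSO and 10 µM JCP410 controls.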", "data": [{"target": "DPAP1 (Plasmodium falciparum, UniProt Q8IIJ9)", "sequence (Q8IIJ9 whole entry, looked up)": "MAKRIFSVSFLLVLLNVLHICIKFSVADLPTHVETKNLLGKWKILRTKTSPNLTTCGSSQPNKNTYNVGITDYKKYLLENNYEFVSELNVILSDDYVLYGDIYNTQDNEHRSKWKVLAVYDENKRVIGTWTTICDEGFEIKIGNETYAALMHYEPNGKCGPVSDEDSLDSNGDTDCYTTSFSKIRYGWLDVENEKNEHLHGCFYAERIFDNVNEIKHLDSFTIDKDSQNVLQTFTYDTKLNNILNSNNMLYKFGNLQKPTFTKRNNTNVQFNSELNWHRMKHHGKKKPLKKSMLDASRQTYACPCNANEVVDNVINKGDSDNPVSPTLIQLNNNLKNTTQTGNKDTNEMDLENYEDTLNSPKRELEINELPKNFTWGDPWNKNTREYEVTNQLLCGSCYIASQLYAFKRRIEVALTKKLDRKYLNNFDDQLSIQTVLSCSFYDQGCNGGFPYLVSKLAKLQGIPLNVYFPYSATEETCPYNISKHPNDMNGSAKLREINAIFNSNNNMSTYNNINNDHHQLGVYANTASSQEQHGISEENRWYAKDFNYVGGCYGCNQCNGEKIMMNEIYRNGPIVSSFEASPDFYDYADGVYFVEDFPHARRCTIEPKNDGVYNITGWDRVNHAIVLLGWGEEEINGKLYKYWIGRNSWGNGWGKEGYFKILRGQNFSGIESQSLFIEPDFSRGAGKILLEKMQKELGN", "test": "primary screen, percent inhibition; read by cleavage of a fluorogenic dipeptide substrate; higher = more effect of the substance", "design": "species or system P. falciparum D10 trophozoite lysates; single well", "units": {"% Inhibition @ 10 uM": "%"}, "values": [{"smiles": "CCOC(=O)c1c(/N=c2\\oc3cc(O)ccc3cc2C(N)=O)sc2c1CCCC2", "% Inhibition @ 10 uM": 1.25}, {"smiles": "CC1=C(C(=O)Nc2ccc(C)cn2)C(c2sccc2C)C2=C(O)CC(C)(C)CC2=N1", "note": "(stereo not drawn)", "% Inhibition @ 10 uM": -0.968}, {"smiles": "OC1CCN(Cc2ccc(-c3ccccc3)cc2)CC1", "% Inhibition @ 10 uM": 3.25}, {"smiles": "COc1ccc(CCNCc2c(C(=O)O)c(C)n(Cc3ccc(F)cc3)c2C)c(OC)c1OC", "% Inhibition @ 10 uM": -3.67}, {"smiles": "COc1ccc(NC(=O)CN(c2cc(C)ccc2C)S(=O)(=O)c2ccccc2)c(OC)c1", "% Inhibition @ 10 uM": -3.39}, {"smiles": "CC(O)c1cccc(NC(=O)c2cc3n(n2)C(C(F)(F)F)CC(c2ccc(F)cc2)N3)c1", "note": "(stereo not drawn)", "% Inhibition @ 10 uM": -2.29}, {"smiles": "O=[N+]([O-])c1cccc(CN2CCN(c3cccc(Cl)c3)CC2)c1", "% Inhibition @ 10 uM": -1.86}, {"smiles": "Cc1cccc(Cn2c(Sc3nc(C)cs3)nc3c2c(=O)[nH]c(=O)n3C)c1", "% Inhibition @ 10 uM": 4}, {"smiles": "COc1ccc(Br)cc1CNC(=O)C1CCN(C(=O)N(C)C)CC1", "% Inhibition @ 10 uM": 0.387}, {"smiles": "CCOC(=O)N1CCN(C(=O)CN(c2cccc(F)c2)S(C)(=O)=O)CC1", "% Inhibition @ 10 uM": 1.27}, {"smiles": "COc1ccc(-c2c(C)nn3c(NCc4ccc(F)cc4)cc(C)nc23)cc1OC", "% Inhibition @ 10 uM": -0.138}, {"smiles": "CCN(CC)CCCOC(=O)C(OC)(c1ccccc1)c1ccccc1", "% Inhibition @ 10 uM": 0.0345}, {"smiles": "CCCN(CC1CC1)C(C)CCc1ccc(O)cc1", "note": "(stereo not drawn)", "% Inhibition @ 10 uM": 3.19}, {"smiles": "O=C(NCCC1=CCCCC1)c1ccc(C(=O)NCCC2=CCCCC2)nc1", "% Inhibition @ 10 uM": 0.389}, {"smiles": "COc1ccc(C2C(C(=O)c3ccccc3)=C(O)C(=O)N2CCN2CCOCC2)cc1OC", "note": "(stereo not drawn)", "% Inhibition @ 10 uM": -0.478}, {"smiles": "C=CCOc1ccc(C(=O)N(Cc2ccc(CC)cc2)C2CCS(=O)(=O)C2)cc1", "note": "(stereo not drawn)", "% Inhibition @ 10 uM": 5.26}, {"smiles": "Cc1ccc(-n2nc3c(c2NC(=O)c2ccccc2C(F)(F)F)CS(=O)(=O)C3)cc1", "% Inhibition @ 10 uM": 5.35}, {"smiles": "Cc1cccc2c(C(=O)O)cc(-c3ccccc3O)nc12", "% Inhibition @ 10 uM": -2.85}, {"smiles": "O=C(Cn1cnc2c(oc3ccccc32)c1=O)N1CCC(Cc2ccccc2)CC1", "% Inhibition @ 10 uM": 1.64}, {"smiles": "C#CC(C)(CCC=C(C)C)OC(=O)Cn1c(=O)sc2cccc(Cl)c21", "note": "(stereo not drawn)", "% Inhibition @ 10 uM": -0.833}, {"smiles": "Cc1ccc(-c2csc(N)c2C(N)=O)cc1C", "% Inhibition @ 10 uM": 1.59}, {"smiles": "O=C(COc1ccc(Cl)cc1)NCc1nnc(SCC(=O)NCc2ccc3c(c2)OCO3)o1", "% Inhibition @ 10 uM": 0.163}, {"smiles": "CC(=O)N[C@@H](Cc1ccccc1C(F)(F)F)C(=O)N[C@@H](CCc1ccccc1)C(=O)c1nc2ccccc2o1", "% Inhibition @ 10 uM": -0.214}, {"smiles": "CCCCN(C)CCCNC(=O)Cn1ncc2c3ccccc3n(C)c2c1=O", "% Inhibition @ 10 uM": 2.99}, {"smiles": "CCOC(=O)/C(C#N)=C/c1c(Oc2ccccc2OC)nc2ccccn2c1=O", "% Inhibition @ 10 uM": -5.1}, {"smiles": "CN1C(c2ccccc2)CC(O)(Cc2ccccc2)CC1c1ccccc1", "note": "(stereo not drawn)", "% Inhibition @ 10 uM": -6.88}, {"smiles": "O=C(O)c1ccc2c(c1)Sc1ccccc1CC2=O", "% Inhibition @ 10 uM": -4.54}, {"smiles": "CCOc1ccc(Nc2cc(=O)n(C)c(=O)n2C)cc1", "% Inhibition @ 10 uM": -4.93}, {"smiles": "C=CCn1c(SCC(=O)Nc2sc3c(c2C(=O)OCC)CCCC3)nnc1-c1cccs1", "% Inhibition @ 10 uM": -5.15}, {"smiles": "Cc1ccc(Sc2c(C)nn(C(=O)c3cccnc3)c2C)cc1", "% Inhibition @ 10 uM": 1.84}, {"smiles": "CCOC(=O)c1c(NC(=O)CSc2nnc3c4ccccc4n(CC)c3n2)sc2c1CCC2", "% Inhibition @ 10 uM": 4.95}, {"smiles": "COc1ccc(N(CC(=O)Nc2ccccc2)S(=O)(=O)c2ccccc2)cc1OC", "% Inhibition @ 10 uM": -0.469}, {"smiles": "COc1ccc(S(=O)Cc2ccc(C(=O)N3CCN(C4CCCCC4)CC3)o2)cc1", "note": "(stereo not drawn)", "% Inhibition @ 10 uM": -0.999}, {"smiles": "COc1ccc(/C=C2\\C(=O)N(c3ccc(Cl)cc3)N=C2C)cc1OC", "% Inhibition @ 10 uM": -2.51}, {"smiles": "Cc1nnc2sc(NC(=O)CC(C)C)nn12", "% Inhibition @ 10 uM": -1.26}, {"smiles": "CCOC(=O)C1=CN(Cc2ccc(OC)cc2)C=C(C(=O)OCC)C1c1cc(OC)c(O)c(OC)c1", "% Inhibition @ 10 uM": 0.219}, {"smiles": "O=C1N/C(=C\\c2ccc([N+](=O)[O-])cc2)C(=O)c2ccccc21", "% Inhibition @ 10 uM": -2.02}, {"smiles": "COC(=O)C1=C(C)N(C)C(=O)NC1c1ccc(OC)c(Br)c1", "note": "(stereo not drawn)", "% Inhibition @ 10 uM": 0.736}, {"smiles": "C=C(C)CN(CC)C1CCN(C(=O)OCC)CC1", "% Inhibition @ 10 uM": -3.6}, {"smiles": "Cc1ccc(-c2noc(CNC(=O)N3CCOCC3)n2)cc1", "% Inhibition @ 10 uM": 0.486}, {"smiles": "CCNC(=O)c1cc2c(C)nn(-c3ccccc3)c2s1", "% Inhibition @ 10 uM": 1.57}, {"smiles": "O=C(C1COc2cc(S(=O)(=O)NCCc3ccc(Cl)cc3)ccc2O1)N1CCCCC1", "note": "(stereo not drawn)", "% Inhibition @ 10 uM": -2.85}, {"smiles": "CC(C)(C)NC(=O)CSc1nc(-c2ccccc2)cc(C(F)(F)F)n1", "% Inhibition @ 10 uM": -1.65}, {"smiles": "COc1cccc(C(C(=O)NC2CCCCC2)N(C(=O)c2cnccn2)c2cccs2)c1", "note": "(stereo not drawn)", "% Inhibition @ 10 uM": -1.07}, {"smiles": "O=S(=O)(Nc1ccccn1)c1ccc2[nH]c3c(c2c1)CCCCC3", "% Inhibition @ 10 uM": -4.13}, {"smiles": "COC(=O)c1c(C)oc2ccc(O)cc12", "% Inhibition @ 10 uM": 4.66}, {"smiles": "CCOc1ccc(NS(=O)(=O)c2ccc(NC(=O)c3ccc(F)cc3)cc2)cc1", "% Inhibition @ 10 uM": -2.19}, {"smiles": "CCOc1cc(/C=C2/C(=N)N3N=C(c4ccc(C)cc4)SC3=NC2=O)ccc1O", "% Inhibition @ 10 uM": -0.0829}, {"smiles": "COc1ccccc1NC(=O)CCCOc1ccc(Cl)cc1Cl", "% Inhibition @ 10 uM": 4.82}, {"smiles": "COC1CCCCC1Nc1ccc2c(c1)CCC2", "note": "(stereo not drawn)", "% Inhibition @ 10 uM": -5.59}, {"smiles": "CC(=O)Nc1ccc(S(=O)(=O)N2CCN(C(=O)N3CCCCC3)CC2)cc1", "% Inhibition @ 10 uM": 2.44}, {"smiles": "Cc1ccc(-n2ncc(C(=O)N3CCN(C)CC3)c2C2CCN(C(=O)OC(C)(C)C)CC2)cc1", "% Inhibition @ 10 uM": -0.171}, {"smiles": "C=CCc1ccccc1OCC(O)CN1CCN(Cc2ccc3c(c2)OCO3)CC1", "note": "(stereo not drawn)", "% Inhibition @ 10 uM": 17.1}, {"smiles": "Cc1ccc2cc(CCNS(C)(=O)=O)c(O)nc2c1", "% Inhibition @ 10 uM": -1}, {"smiles": "Cc1ccc(-n2nc(C)c3c(C)c(CCC(=O)N4CCN(C(=O)c5ccco5)CC4)c(C)nc32)cc1C", "% Inhibition @ 10 uM": -4.1}, {"smiles": "CCOc1ccc(NS(=O)(=O)c2ccc(NC(=O)C3CC3)cc2)cc1", "% Inhibition @ 10 uM": 4.11}, {"smiles": "CCNC(=O)/C(C#N)=C/c1c(Oc2ccc(C(C)(C)C)cc2)nc2ccccn2c1=O", "% Inhibition @ 10 uM": 6.78}, {"smiles": "Cc1c(CCO)c(O)oc2nnc(-c3ccccc3)c1-2", "% Inhibition @ 10 uM": -3.14}, {"smiles": "CCN(CCO)Cc1csc2c(Cl)cccc12", "% Inhibition @ 10 uM": -0.641}, {"smiles": "CCCN1C/C(=C\\c2cccc([N+](=O)[O-])c2)C2=NN(C(C)=O)C(c3cccc([N+](=O)[O-])c3)C2C1", "note": "(stereo not drawn)", "% Inhibition @ 10 uM": 2.94}]}]}
